Laboratory results reported in patent publication US20250092108A1 (published 2025).
Blank lines part the entries; values can stand above or below the binder they belong to.

Key:
[1] = target: T1, human CD25 (IL-2Rα) (human, UniProt P01589 22-213); test: Biacore; pH 6.0
T1 chain: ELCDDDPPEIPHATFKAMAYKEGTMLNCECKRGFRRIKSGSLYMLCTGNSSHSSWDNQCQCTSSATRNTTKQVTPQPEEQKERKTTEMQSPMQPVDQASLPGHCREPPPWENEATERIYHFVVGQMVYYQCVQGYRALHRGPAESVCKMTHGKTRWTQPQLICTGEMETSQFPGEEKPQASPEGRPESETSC

[2] = target: T1, human CD25 (IL-2Rα); test: Biacore; pH 7.4

Kd [1]: 18.3 nM
Kd [2]: 49.8 nM
B1: XENP14142 (variant IL-2 with R38I and C125S) (ligand)
chain: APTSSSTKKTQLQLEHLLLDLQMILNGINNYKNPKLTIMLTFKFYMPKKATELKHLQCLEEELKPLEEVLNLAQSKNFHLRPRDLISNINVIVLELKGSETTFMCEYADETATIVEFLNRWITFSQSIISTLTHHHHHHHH

Kd [1]: 167 nM
Kd [2]: 15.6 nM
B2: XENP14135 (wild-type IL-2 with C125S mutation) (ligand)
chain: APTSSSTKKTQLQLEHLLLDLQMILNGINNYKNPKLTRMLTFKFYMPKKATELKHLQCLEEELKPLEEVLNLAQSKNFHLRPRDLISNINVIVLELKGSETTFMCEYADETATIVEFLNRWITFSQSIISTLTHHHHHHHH

Kd [1]: 17.7 nM
Kd [2]: 39.1 nM
B3: XENP14144 (R38L) (ligand)
chain: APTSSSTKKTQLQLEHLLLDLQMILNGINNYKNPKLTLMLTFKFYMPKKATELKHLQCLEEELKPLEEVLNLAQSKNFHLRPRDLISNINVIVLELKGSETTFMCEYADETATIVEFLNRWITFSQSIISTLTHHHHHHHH
